Measurements reported in the supplement of paper PMC12645437, “Orthogonal IMiD-Degron Pairs Induce Selective Protein Degradation in Cells” (ACS Chemical Biology, 2025).
The other results are listed elsewhere or left out.

Molecular target: no compound (DMSO)
Assay: log2 fold change of degron read counts, EGFP-low vs EGFP+ sorted cells; higher = lower degron-EGFP level without compound (poor expression or instability)
Settings: compound: DMSO control; 18 h
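Note: jurkat cells carrying a lentiviral library of mutant zinc finger degrons fused to EGFP plus mCherry, mCherry+ cells FACS sorted, degron abundance counted by next-generation sequencing.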

Sequence | log2 fold change of degron read counts
FTCDICGASFTQKGNLLRHIKL | -1.38
FICPICGRGFTQKGNLLRHIKL | -0.105
FDCNQCGAMFTQKGNLLRHIKL | -0.463
FLCPICGAAFTQKGNLLRHIKL | 0.0826
FDCNVCGAMFTQKGNLLRHIKL | -0.562
FLCEICGHEFTQKGNLLRHIKL | -3.75
FSCPQCGARFTQKGNLLRHIKL | -0.551
LNCNQCGFLCTQKGNLLRHIKL | 1.26
FMCNVCGAFFTQKGNLLRHIKL | 0.156
FICNQCGRAFTQKGNLLRHIKL | -0.792
FKCEVCGATFTQKGNLLRHIKL | -1.45
FSCNQCGAKFTQKGNLLRHIKL | -0.809
FFCDQCGAGFTQKGNLLRHIKL | -1.08
FRCSVCGHWFTQKGNLLRHIKL | 0.0806
LHCNQCGFLCTQKGNLLRHIKL | 1.16
FCCDICGAMFTQKGNLLRHIKL | -0.715
FSCNQCGHWFTQKGNLLRHIKL | 1.34
FQCNQCGAYFTQKGNLLRHIKL | -1.18
FFCPVCGAMFTQKGNLLRHIKL | 0.692
FVCDQCGASFTQKGNLLRHIKL | -2.82
LVCPICGFMCTQKGNLLRHIKL | 0.504
FRCDQCGAMFTQKGNLLRHIKL | -0.893
FACEICGRGFTQKGNLLRHIKL | -1.13
FICEICGAEFTQKGNLLRHIKL | -1.19
FICEVCGAPFTQKGNLLRHIKL | -1.75

Sequence | log2 fold change of degron read counts
FFCPQCGAPFTQKGNLLRHIKL | -0.962
FCCSVCGHFFTQKGNLLRHIKL | 0.384
FMCNQCGAFFTQKGNLLRHIKL | 0.257
FFCPICGATFTQKGNLLRHIKL | -0.233
FWCNVCGAGFTQKGNLLRHIKL | 0.693
FICPICGHHFTQKGNLLRHIKL | -0.78
FCCNICGAMFTQKGNLLRHIKL | -0.499
FICNVCGASFTQKGNLLRHIKL | -1.79
FQCEVCGACFTQKGNLLRHIKL | -1.68
FQCEQCGAFFTQKGNLLRHIKL | -1.32
FDCNQCGRQFTQKGNLLRHIKL | -0.133
FGCEQCGAAFTQKGNLLRHIKL | -0.601
FCCEICGAFFTQKGNLLRHIKL | -0.519
FGCDQCGAIFTQKGNLLRHIKL | -0.963
LVCPICGFSCTQKGNLLRHIKL | 0.666
FNCDVCGAKFTQKGNLLRHIKL | -1.47
FKCSVCGHNFTQKGNLLRHIKL | -0.273
FYCNQCGAPFTQKGNLLRHIKL | 0.202
FGCNQCGRHFTQKGNLLRHIKL | 0.301
FKCEVCGAKFTQKGNLLRHIKL | -1.23
FRCPQCGAEFTQKGNLLRHIKL | -1.28
FCCPICGHGFTQKGNLLRHIKL | -0.395
FSCDQCGAHFTQKGNLLRHIKL | -2.07
FVCPVCGATFTQKGNLLRHIKL | -1.47
LICPICGFACTQKGNLLRHIKL | 1.02
